The whole screen tested about 310,000 compounds, of which about 14,000 (4.5%) showed an effect of 50% or more. Effects have a minus sign here. The list shows a part of the results.
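Further: peak tail current of the secondary pulse compared with the same well before compound.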

human ether-à-go-go-related gene (hERG) potassium channel, sequence (Q12809 whole entry, looked up): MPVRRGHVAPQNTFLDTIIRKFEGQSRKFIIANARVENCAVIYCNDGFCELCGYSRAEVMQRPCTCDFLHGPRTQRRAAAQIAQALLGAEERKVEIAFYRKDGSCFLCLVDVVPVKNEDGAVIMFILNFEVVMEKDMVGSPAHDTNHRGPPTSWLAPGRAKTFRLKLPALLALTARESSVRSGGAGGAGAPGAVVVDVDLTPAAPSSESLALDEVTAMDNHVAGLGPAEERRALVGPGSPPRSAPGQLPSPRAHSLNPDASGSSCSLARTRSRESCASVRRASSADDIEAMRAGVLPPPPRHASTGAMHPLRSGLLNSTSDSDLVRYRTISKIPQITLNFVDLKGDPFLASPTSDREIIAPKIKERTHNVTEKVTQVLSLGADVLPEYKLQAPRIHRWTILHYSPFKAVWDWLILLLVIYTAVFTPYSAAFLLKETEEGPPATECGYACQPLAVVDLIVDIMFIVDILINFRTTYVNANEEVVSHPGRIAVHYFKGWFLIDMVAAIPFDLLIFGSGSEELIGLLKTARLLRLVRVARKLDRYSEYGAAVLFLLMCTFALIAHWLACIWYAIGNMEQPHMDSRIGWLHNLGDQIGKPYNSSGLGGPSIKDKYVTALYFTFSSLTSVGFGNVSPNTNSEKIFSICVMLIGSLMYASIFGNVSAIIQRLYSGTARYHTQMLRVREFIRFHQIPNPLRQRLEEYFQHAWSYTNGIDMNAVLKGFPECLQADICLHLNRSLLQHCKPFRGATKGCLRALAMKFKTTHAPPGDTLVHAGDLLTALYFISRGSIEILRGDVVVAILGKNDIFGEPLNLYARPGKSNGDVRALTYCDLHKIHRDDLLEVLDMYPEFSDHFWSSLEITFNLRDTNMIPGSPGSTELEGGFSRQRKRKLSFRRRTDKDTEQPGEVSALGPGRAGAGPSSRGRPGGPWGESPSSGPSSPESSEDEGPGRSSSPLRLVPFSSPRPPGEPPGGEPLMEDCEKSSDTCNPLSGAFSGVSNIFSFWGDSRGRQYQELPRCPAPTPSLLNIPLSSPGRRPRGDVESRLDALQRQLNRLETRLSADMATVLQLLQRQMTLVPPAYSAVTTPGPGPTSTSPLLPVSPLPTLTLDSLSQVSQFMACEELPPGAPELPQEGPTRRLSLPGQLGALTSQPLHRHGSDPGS

The assay has as its target human ether-à-go-go-related gene (hERG) potassium channel (human, UniProt Q12809). The assay is described as follows: primary screen, population patch clamp on CHO cells stably expressing hERG.
`CCn1c(=O)c(=O)[nH]c2cc(C(=O)N3CCN(Cc4ccc5c(c4)OCO5)CC3)ccc21`: the “hERG current change (%, negative = inhibition) at 10uM” value came to 22.4%. In the case of `CCNC(=O)c1ccc(NC(=O)CC2SC(N3CCCC3)=NC2=O)cc1` (stereo not drawn) it was 1.05%. The value for `CCCOc1ccc(CNC(=O)C2CCN(c3nn4c(=O)cc(C)nc4s3)CC2)cc1` was -21.3%. In the case of `O=C(Nc1ccc(Br)cc1)c1cccc(S(=O)(=O)Nc2ccccn2)c1` it was 16%; in that of `COc1ccc(-c2cn[nH]c2-c2ccc(OCC(=O)NN)cc2O)cc1`, 17.4%. In the case of `COc1ccc(CCNC(=O)CCn2c(=O)c3cccn3c3cccnc32)cc1OC`, the “hERG current change (%, negative = inhibition) at 10uM” value was 1.63%.

For the compound `CC(C)(C)c1ccc(C(=O)NC(=S)NCc2ccco2)cc1`, the “hERG current change (%, negative = inhibition) at 10uM” value was -3.98%. In the case of `O=C(NCc1ccc(-c2csnn2)cc1)C1CC1` it was 7.09%.

As for `O=C(CC(Nc1cccc(Cl)c1Cl)C(=O)OCC(=O)c1cccs1)c1ccccc1` (stereo not drawn), the “hERG current change (%, negative = inhibition) at 10uM” value is reported as -5.59%. The value for `Cc1ccc(S(=O)(=O)N(C)Cc2cc3ccccc3[nH]c2=O)cc1` was -15.7%. For the compound `CSc1ccc(/C=N\NC(=O)COc2ccc(Cl)cc2Br)cc1`, the “hERG current change (%, negative = inhibition) at 10uM” value is listed as -1.53%.

Turning to `CSc1ccccc1C(=O)Nc1cc([N+](=O)[O-])ccc1C`, the “hERG current change (%, negative = inhibition) at 10uM” value is given as -4.66%. The value for `CNC(=O)c1nnc(Cc2ccc(Cl)cc2)o1` was 3.2%; that for `COC(=O)C1=C(c2ccc3ccccc3c2)C[C@@H]2CC[C@H]1N2C(=O)NCc1ccc(C(F)(F)F)cc1` was 16%; that for `O=C(Oc1ccc(-c2ccccc2)cc1)N1CCCCC1` was -1.58%.

For `CCC1Oc2ccc(C)cc2N(CC(=O)NCc2cccs2)C1=O` (stereo not drawn), the “hERG current change (%, negative = inhibition) at 10uM” value is 4.8%.

Consider `CC(=O)c1cc(-c2ccccc2)[nH]c1N1CCCC1`, for which the “hERG current change (%, negative = inhibition) at 10uM” value is listed as -5.68%.

Regarding `CCc1ccccc1NC(=O)c1cc(-c2ccc(OC)cc2)on1`, the “hERG current change (%, negative = inhibition) at 10uM” value is 15%. The value for `COc1ccc(CNC(=O)Nc2ccc3c(c2)N(C)C(=O)CS3)cc1` was -0.138%. The value for `COc1c(C(=O)Nc2nccs2)ccc2ccccc12` was -22%. Regarding `COc1ccc(-c2csc(NC(=O)C(CC(=O)O)N3CCOCC3)n2)cc1` (stereo not drawn), the “hERG current change (%, negative = inhibition) at 10uM” value is recorded as 0.676%. The value for `COc1cc(CC2COC(=O)C2(O)Cc2ccc(O)c(OC)c2)ccc1O` (stereo not drawn) was 7.65%. In the case of `C/C(=N\Nc1cc(Cl)nc(C)n1)c1ccc(Cl)c(Cl)c1` it was -7.27%. In the case of `O=c1c(Br)c(N2CCCC2)cnn1-c1ccccc1` it was 4.57%. As to `Cc1ccccc1NC1=NC(=S)N(c2ccccc2)C12CCCCC2`, the “hERG current change (%, negative = inhibition) at 10uM” value came out at 10.6%. As to `COC(=O)C1=NNC2C(=O)N(c3ccc(C)cc3)C(=O)C12` (stereo not drawn), the “hERG current change (%, negative = inhibition) at 10uM” value is recorded as 32.2%. Regarding `COc1cc2cc(CN(CCCO)S(=O)(=O)c3ccccc3)c(=O)[nH]c2cc1OC`, the “hERG current change (%, negative = inhibition) at 10uM” value is listed as -16.7%. For `O=C(CSc1ccc(-c2cccs2)nn1)NCc1ccccc1Cl`, the “hERG current change (%, negative = inhibition) at 10uM” value was -28.7%. Take `Cc1cc(C(=O)CS(=O)(=O)c2ccc(Cl)cc2)cc(C)c1O`: the “hERG current change (%, negative = inhibition) at 10uM” value came out at 16.6%. Turning to `O=S(=O)(NC1CCCC1)c1ccc(Br)s1`, the “hERG current change (%, negative = inhibition) at 10uM” value is -1.55%. As to `S=c1[nH]nc(-c2ccccn2)n1/N=C/c1ccccc1`, the “hERG current change (%, negative = inhibition) at 10uM” value was 14.3%. In the case of `CCOC(=O)c1c(NC(=O)CSc2c[nH]c3ccccc23)sc2c1CCCC2` it was 15.5%. The value for `CCN(CC)S(=O)(=O)c1ccc(N2CCOCC2)c(NC(=O)c2cc([N+](=O)[O-])ccc2Cl)c1` was 17.2%; that for `CC(=O)Nc1ccc(S(=O)(=O)N(C)CC(=O)OC2CCCCC2=O)cc1` (stereo not drawn) was -5.35%; that for `O=C(CSc1nc2ccccc2c(=O)[nH]1)N1CCN(c2ccccc2F)CC1` was 9.44%.

On to `COc1ccc(S(=O)(=O)N2CCOCC2)cc1C(=O)NC1CCCCC1`, for which the “hERG current change (%, negative = inhibition) at 10uM” value stood at 6.05%. The value for `Nc1nc(COc2ccc(Cl)cc2)cs1` was -0.505%.

Turning to `C=CCNC(=O)c1ccccc1NC(=O)c1ccccc1SC`, the “hERG current change (%, negative = inhibition) at 10uM” value was -19.8%.

For the compound `CCc1nnc(NC(=O)NCN2C(=O)C3C4C=CC(C4)C3C2=O)s1` (stereo not drawn), the “hERG current change (%, negative = inhibition) at 10uM” value is listed as 1.86%. The value for `Cc1ccc(CNC(=O)C(=O)NCC2OCCN2C(=O)c2ccc(Cl)cc2)cc1` (stereo not drawn) was -13%. In the case of `C[n+]1cccc(C(=O)N/N=C/c2ccc3c(c2)OCO3)c1.[I-]` it was 16.9%; in that of `CC1CCCN(S(=O)(=O)c2ccc(NC(=O)CN3CCCCC3)cc2)C1` (stereo not drawn), -37.6%; in that of `Cc1noc(C(=O)Nc2cc(Cl)ccc2O)c1Cl`, 31.5%. In the case of `O=C(Cc1c(F)cccc1Cl)Nc1ccc(S(=O)(=O)Nc2nccs2)cc1` it was 16.4%; in that of `Cc1ccc(NC(=O)c2nc[nH]c2C(=O)N(C)Cc2ccccc2)cc1`, -4.42%.

The record behind these values is paper PMC4336329 (PLoS ONE, 2015).
